# Measurements: PubChem BioAssay AID1460 (National Center for Advancing Translational Sciences (NCATS), 2008)
# In all, about 270,000 compounds went through this assay and about 5,800 (2.1%) were called active. Inconclusive means that the source gave no clear call. Such entries were picked first, then a sample of the others. The call rests on the fitted dose curve; in most records, active means well fitted inhibition curve with a large enough effect; inconclusive means small, poorly fitted or top-dose-only effect; inactive means flat fitted curve, though single readings scatter. Potencies of inconclusive entries are doubtful fits and often do not repeat.
# Target: Microtubule-associated protein tau (Homo sapiens) (UniProt P10636)
# Sequence of UniProt P10636 (P10636 whole entry, looked up): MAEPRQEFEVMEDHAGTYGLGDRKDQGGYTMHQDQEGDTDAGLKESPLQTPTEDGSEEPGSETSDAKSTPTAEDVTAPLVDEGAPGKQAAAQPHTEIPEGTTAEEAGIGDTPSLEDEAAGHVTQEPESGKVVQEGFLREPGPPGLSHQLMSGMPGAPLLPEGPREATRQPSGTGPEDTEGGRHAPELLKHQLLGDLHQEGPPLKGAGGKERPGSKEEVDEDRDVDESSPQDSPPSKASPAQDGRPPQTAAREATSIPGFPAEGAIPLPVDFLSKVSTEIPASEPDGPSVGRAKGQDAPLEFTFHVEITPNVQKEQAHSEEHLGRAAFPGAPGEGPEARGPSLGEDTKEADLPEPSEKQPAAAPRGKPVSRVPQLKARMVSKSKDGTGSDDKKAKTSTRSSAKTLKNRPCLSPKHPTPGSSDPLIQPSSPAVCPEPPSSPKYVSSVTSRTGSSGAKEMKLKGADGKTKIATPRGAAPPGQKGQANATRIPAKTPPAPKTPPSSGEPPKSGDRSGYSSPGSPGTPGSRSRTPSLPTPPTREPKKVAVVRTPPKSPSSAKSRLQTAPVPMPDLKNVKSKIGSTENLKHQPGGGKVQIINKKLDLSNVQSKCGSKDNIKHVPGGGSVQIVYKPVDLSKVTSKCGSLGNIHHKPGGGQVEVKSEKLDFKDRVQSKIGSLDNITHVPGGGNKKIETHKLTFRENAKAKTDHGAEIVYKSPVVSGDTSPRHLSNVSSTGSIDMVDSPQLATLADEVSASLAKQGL
# Experiment: qHTS for Inhibitors of Tau Fibril Formation, Thioflavin T Binding; further: nearly all actives have a fitted effect of over 55% in size
# Settings: recombinant tau K18 P301L (four-repeat tau fragment), heparin-induced fibrillization, ThT fluorescence; series mostly up to 57.4 µM
# In short: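 Heparin-induced fibrillization of the P301L-mutant K18 repeat-domain fragment of human tau was followed by ThT binding in quantitative high-throughput format.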
# On the % scale 0 is the no-effect control and ±100 the full control effect; potency means the concentration at half of the fitted maximal effect; tags describe the fitted curve by direction and shape.
Structure (SMILES),Potency,"activity, negative = inhibition"
COc1ccc2c(c1)CC(C(=O)NCCN1CCN(c3cccc(C)c3C)CC1)CO2 (stereo not drawn),"inconclusive: 28.2 µM [inhibitor, single point]",–
O=c1c2ccccc2sc2nc(C3CCCCC3)n(Cc3ccco3)c(=O)c12,inactive,–
CCN(CC)C(=O)C1CCCN(c2ccc([N+](=O)[O-])cc2)C1 (stereo not drawn),"inconclusive: 15.8 µM [inhibitor, partial curve]",–
Cc1ccc(N2CCN(C(=S)c3ccc(-c4ccccc4[N+](=O)[O-])o3)CC2)cc1,"inconclusive: 15.8 µM [inhibitor, partial curve]",–
COc1ccccc1C1CCN(c2ccc([N+](=O)[O-])c(OC)c2)CC1,active: 8.91 µM,–
Clc1nc(Oc2ccccc2)nc(-c2cn(-c3ccccc3)c3ccccc23)n1,inactive,–
O=C(NCCc1ccccc1F)[C@@H]1CSC2c3ccccc3C(=O)N21 (stereo partly drawn),"inconclusive: 17.8 µM [inhibitor, single point]",–
O=C(CCC1N=C2c3ccccc3N=C(SCC(=O)NCc3ccco3)N2C1=O)NCc1ccco1 (stereo not drawn),"inconclusive: 44.7 µM [inhibitor, single point]",–
O=C(O)c1ccc2ncsc2c1,inactive,–
COc1ccc(-n2c(SC(CN3CCCCC3)CN3CCCC3=O)nc3ccccc3c2=O)cc1 (stereo not drawn),"inconclusive: 39.8 µM [inhibitor, single point]",–
Brc1ccc(-c2nc3ncccn3c2NC2CCCCC2)o1,"inconclusive: 31.6 µM [inhibitor, partial curve]",–
O=C(Cc1ccc(S(=O)(=O)N2CCOCC2)s1)Nc1ccc(N2CCOCC2)cc1,"inconclusive: 11.2 µM [inhibitor, partial curve]",–
O=[N+]([O-])c1cccc(CSc2ncnc3ccccc23)c1,"inconclusive: 20 µM [inhibitor, partial curve]",–
COc1ccc(CNC(=O)Nc2cc(C)cc(C)c2)cc1,inactive,–
O=C(NCc1ccc2c(c1)CCN2C(=O)c1ccccc1)c1ccco1,inactive,–
O=C(Nc1ccc(S(=O)(=O)N(Cc2ccccc2)c2ccccc2)cc1)c1ccc([N+](=O)[O-])cc1,inactive,–
O=c1cc[nH]c(=S)[nH]1,inactive,–
CCCCC/C=C\C\C=C/C=C/C=C/[C@@H](SC[C@H](N)C(=O)O)[C@@H](O)CCCC(=O)O,inactive,–
Cc1ccc(C)c(N2CCN(CCCNC(=O)c3nnc(Cc4ccc(F)cc4Cl)o3)CC2)c1,"inconclusive: 20 µM [inhibitor, partial curve, poor fit]",–
CC(=O)c1ccc(S(=O)(=O)N(Cc2cc3cc4c(cc3[nH]c2=O)OCCO4)CC2CCCO2)cc1 (stereo not drawn),"inconclusive: 12.6 µM [inhibitor, partial curve]",–
CCCCCOC(=O)c1ccc(OC(=O)c2sc3ncn(Cc4cccc(F)c4)c(=O)c3c2C)cc1,inactive,–
CCC(C)n1c(=S)[nH]c2c(sc3ccc([N+](=O)[O-])cc32)c1=O (stereo not drawn),"inconclusive: 14.1 µM [inhibitor, partial curve, poor fit]",–

Structure (SMILES),Potency,"activity, negative = inhibition"
O=C(N/N=C1/C[C@@H](O)[C@@H](O)[C@@H]2[C@@H]3C(=O)N(C4CCCCC4)C(=O)[C@H]3CC[C@H]12)OCc1ccccc1,–,inactive: -4.24% [at 11.5 µM]
COc1ccc(N2CCN(C(=O)CSc3nnc4c(C)cc5c(C)cc(C)cc5n34)CC2)cc1,"inconclusive: 15.8 µM [inhibitor, partial curve]",–
CC(=O)Nc1ccc(C(=O)/C=C/c2ccco2)cc1,"inconclusive: 20 µM [inhibitor, partial curve]",–
CCOc1ccc(-n2c(N)c(C(=O)NCc3cccnc3)sc2=S)cc1,inactive,–
Clc1ccccc1N=C1NN=C(c2cccs2)CS1,"inconclusive: 15.8 µM [inhibitor, partial curve]",–
Cc1ccc(C2C3=C(CCCC3=O)Nc3[nH]c(=S)[nH]c(=O)c32)cc1 (stereo not drawn),inactive,–
NC(=O)CNC(=O)[C@@H]1CC2(CC(c3cccc(Br)c3)=NO2)CN1C(=O)c1ccc(Br)cc1 (stereo partly drawn),"inconclusive: 14.1 µM [inhibitor, partial curve, poor fit]",–
Cc1ccc(C(=O)N/C(=C/C=C/c2ccccc2)C(=O)NCc2ccco2)cc1,"inconclusive: 0.708 µM [inhibitor, full curve, poor fit]",–
COc1ccc(-c2csc3nc(-c4ccccc4F)oc(=O)c23)cc1OC,"inconclusive: 39.8 µM [inhibitor, partial curve, poor fit]",–
CCCOc1ccc(NC(=O)C2CC(=O)N/C(=N/N=C(C)/C=C/c3ccc(N(C)C)cc3)S2)cc1 (stereo not drawn),"inconclusive: 12.6 µM [inhibitor, partial curve]",–
CC(=O)c1c(C)[nH]c(C(=O)CSc2nc3ccc(C)cc3[nH]2)c1C,"inconclusive: 14.1 µM [inhibitor, partial curve]",–
COc1ccc(Nc2nc(CC(C)=O)ns2)cc1,"inconclusive: 17.8 µM [inhibitor, single point]",–
CCc1cc2c(-c3ccccc3)cc(=O)oc2cc1OC(=O)c1cccs1,inactive,–
COC(=O)[C@@]1(Cc2ccccc2)[C@H]2c3cc(C(=O)N4CCCC4)n(Cc4nc5ccccc5[nH]4)c3C[C@H]2CN1C(=O)c1ccccc1,"inconclusive: 4.47 µM [inhibitor, partial curve]",–
COc1ccc(C/C(O)=C(\C#N)c2nc3ccccc3s2)cc1,"inconclusive: 25.1 µM [inhibitor, single point]",–
Cc1ccc(C(=O)NC(=S)Nc2ccc(N3CCOCC3)cc2)c(C)c1,"inconclusive: 3.16 µM [inhibitor, full curve]",–
N#CCC(=O)c1ccccc1Oc1ccc(Cl)cc1,"inconclusive: 17.8 µM [inhibitor, single point]",–
NS(=O)(=O)c1ccc(CCNS(=O)(=O)c2cccc(C(=O)O)c2)cc1,inactive,–
O=C(/C=C/c1ccco1)c1ccc(O)cc1,"inconclusive: 28.2 µM [inhibitor, partial curve]",–
CCCCn1c(SCC(=O)NCc2ccccc2)nc2ccc(N3CCOCC3)cc2c1=O,inactive,–
Cc1ccc(C)c(OC(=O)CSc2nnc(-c3ccc4c(c3)OCO4)o2)c1,inactive,–
